From PubChem BioAssay AID2675 (National Center for Advancing Translational Sciences (NCATS), 2010)
About 100 (0.036%) of roughly 280,000 compounds were called active. The shares of active, inactive and inconclusive entries below differ from those in the screen. The call rests on the fitted dose curve; in most records, active means well fitted inhibition curve with a large enough effect in the signal ratio, with a control signal flat (not every such curve was filed as active); inconclusive means small, poorly fitted or top-dose-only effect, or effect the other way, or a change in a side signal; inactive means no such curve, though single readings can be large or run the other way; the % refers to the signal ratio. Potencies beside an inconclusive call are fits to weak or partial responses and may not hold up. “Side channel” marks fits to a control or component signal instead of the main read-out.

The molecules below were run against Muscleblind-like protein 1 (Homo sapiens) (UniProt Q9NR56) (assay: qHTS Assay for Inhibitors of MBNL1-poly(CUG) RNA binding). Conditions: TR-FRET MBNL1-His/biotin-(CUG)12 binding, 665/545 ratio; activity change, negative = inhibition: at 57.5 µM (top of the series).
Summary of the method: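 Compounds (final 92 nM to 58 uM) are added to His-tagged MBNL1 and biotin-(CUG)12, then terbium anti-His antibody and streptavidin-XL665 (5 nM final). After 60 min at room temperature, the 665/545 nm ratio is read.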
On the % scale 0 is the no-effect control and ±100 the full control effect; potency means the concentration at half of the fitted maximal effect; tags describe the fitted curve by direction and shape or compound fluorescence and quenching.

Sequence of UniProt Q9NR56 (Q9NR56 whole entry, looked up): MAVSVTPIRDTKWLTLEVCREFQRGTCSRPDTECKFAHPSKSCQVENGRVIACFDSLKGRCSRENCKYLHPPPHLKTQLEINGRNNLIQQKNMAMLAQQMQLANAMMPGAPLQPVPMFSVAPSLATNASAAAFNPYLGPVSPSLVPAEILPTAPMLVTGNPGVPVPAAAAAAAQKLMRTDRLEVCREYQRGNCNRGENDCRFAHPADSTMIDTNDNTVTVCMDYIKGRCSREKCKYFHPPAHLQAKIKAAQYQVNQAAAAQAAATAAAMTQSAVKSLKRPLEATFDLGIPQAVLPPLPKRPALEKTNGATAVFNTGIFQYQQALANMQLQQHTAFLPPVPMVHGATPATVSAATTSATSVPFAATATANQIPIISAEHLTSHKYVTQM

| Structure (SMILES) | Potency | activity change, negative = inhibition |
| --- | --- | --- |
| Cc1csc(NC(=O)Cc2ccccc2[N+](=O)[O-])n1 | inconclusive: 12.6 µM [quencher, side channel, partial curve, poor fit] |  |
| Cc1nc2ccccc2c(=O)n1NC(=O)c1ccc([N+](=O)[O-])cc1 | inconclusive: 25.1 µM [quencher, side channel, partial curve] |  |
| COc1ccc(C(=O)/C(=C\c2ccco2)N2C=CC=CC2=C(C#N)C#N)cc1 | inconclusive: 15.8 µM [quencher, side channel, partial curve] |  |
| CC(C)CCN1C(=O)c2ccc(C(=O)Nc3c[nH]c(=O)[nH]c3=O)cc2C1=O | inconclusive: 1 µM [quencher, side channel, full curve] |  |
| NC(=NCc1ccccc1)c1cccc([N+](=O)[O-])c1 | inconclusive: 28.2 µM [quencher, side channel, partial curve] |  |
| O=C(NCc1ccccn1)C1CCCN(Cc2cnn(-c3ccccc3)c2-n2cccc2)C1 (stereo not drawn) |  | inactive: 9.39% |
| O=C(Nc1ccccn1)Nc1cccs1 |  | inactive: 3.81% |
| CCN(CC)CC(O)CN(c1ccccc1)S(=O)(=O)c1ccc2ccccc2c1 (stereo not drawn) |  | inactive: 3.46% |
| Cc1cc(SCC(=O)N/N=C/c2ccc(O)c(O)c2)nc2ccccc12 |  | inactive: 17.5% |
| CNc1cc(N2CCCCCC2)ccc1[N+](=O)[O-] | inconclusive: 12.6 µM [quencher, side channel, partial curve] |  |
| Cc1ccc(CSCC(N)C(=O)O)cc1 (stereo not drawn) | inconclusive: 35.5 µM [fluorescent, side channel, partial curve] |  |
| COC(=O)c1ccc(C)c(NC(=O)c2ccc(Cn3cc([N+](=O)[O-])cn3)o2)c1 | inconclusive: 31.6 µM [quencher, side channel, single point] |  |
| CCN(CC)c1ccc(/C=C/c2ccc3ccc(OC)cc3[n+]2CC)cc1 | inconclusive: 10 µM [quencher, side channel, partial curve] |  |
| Nc1nonc1-n1nnc(C(=O)N/N=C/c2cccnc2)c1-c1cccs1 | inconclusive: 15.8 µM [quencher, side channel, partial curve] |  |
| O=C(c1cc(F)c(F)cc1Cl)N1CCN(c2ccc([N+](=O)[O-])c3ncccc23)CC1 | inconclusive: 8.91 µM [quencher, side channel, partial curve] |  |
| O=C(Nc1cccc2nsnc12)c1ccc2c(c1)OCCO2 | inconclusive: 14.1 µM [quencher, side channel, partial curve] |  |
| CCOC(=O)c1c(NC(=O)c2ccc(S(=O)(=O)N3CCOCC3)cc2)sc2c1CCN(C)C2 | inconclusive: 15.8 µM [quencher, side channel, partial curve] |  |
| CC(C)(C)SCCNC(=O)/C=C/c1ccc([N+](=O)[O-])cc1 | inconclusive: 7.08 µM [quencher, side channel, partial curve] |  |
| c1csc(-c2ncc3ccccn23)c1 | inconclusive: 14.1 µM [quencher, side channel, partial curve] |  |
| CCN(CC)C(=O)C1CCCN(C/C=C/c2ccccc2)C1 (stereo not drawn) | inconclusive: 39.8 µM [quencher, side channel, single point] |  |
| O=C(NCC1CCCO1)c1cc(-c2ccncc2)nc2ccc(S(=O)(=O)N3CCOCC3)cc12 (stereo not drawn) | inconclusive: 11.2 µM [quencher, side channel, partial curve] |  |

| Structure (SMILES) | Potency | activity change, negative = inhibition |
| --- | --- | --- |
| O=[N+]([O-])c1ccc(Oc2ccc(F)cc2)c2ccncc12 | inconclusive: 12.6 µM [quencher, side channel, partial curve] |  |
| CCOC(=O)N1CCN(C(=O)/C(=C/c2ccc(Br)cc2)NC(=O)c2ccc(OC)cc2)CC1 |  | inactive: 9.5% |
| Cc1ccc(Oc2ccc(C(F)(F)F)cc2[N+](=O)[O-])c([N+](=O)[O-])n1 | inconclusive: 17.8 µM [quencher, single point] |  |
| COc1ccc2oc(=O)c(/C(N)=N/NC(=O)c3ccncc3)cc2c1 | inconclusive: 39.8 µM [quencher, side channel, partial curve] |  |
| O=C1C(=O)N(CCCN2CCOCC2)C(c2ccc([N+](=O)[O-])cc2)/C1=C(/O)c1ccc2c(c1)OCO2 (stereo not drawn) | inconclusive: 22.4 µM [quencher, side channel, partial curve] |  |
| CCN1CCN(CCNC(=O)c2ccc3c(c2)NC(=O)/C(=C\c2ccc(OC)c(OC)c2)S3)CC1 | inconclusive: 11.2 µM [quencher, partial curve] |  |
| CC1(C)Oc2ccc3ccc(=O)oc3c2/C(=C/N)C1=O | inconclusive: 35.5 µM [quencher, side channel, single point] |  |
| CCCN(CCC)S(=O)(=O)c1ccc(C(=O)Nc2nnc(-c3cc(OC)cc(OC)c3)o2)cc1 |  | inactive: 5.96% |
| COc1ccc(OC)c(Nc2nc(=O)c3cccnc3s2)c1 |  | inactive: 6.32% |
| CC1CCC/C=C/C(=O)c2c(O)cc(O)cc2CC(=O)O1 (stereo not drawn) |  | inactive: -9.9% |
| CCN(CC)c1ccc(C=N/C(C#N)=C(\N)C#N)cc1 | inconclusive: 22.4 µM [quencher, side channel, single point] |  |
| O=C(Cn1c(=O)[nH]c2ccccc2c1=O)Nc1ccc2c(c1)OCCO2 | inconclusive: 35.5 µM [fluorescent, side channel, single point] |  |
| O=C1N=C(N2CCCC2)S/C1=C\c1cccc(Br)c1 | inconclusive: 15.8 µM [quencher, partial curve] |  |
| CC1CCN(C(=O)c2ccc3c(c2NCCO)C(=O)c2ccccc2C3=O)CC1 | inconclusive: 11.2 µM [quencher, side channel, partial curve] |  |
| CC(C)(C)N(NS(=O)(=O)c1ccc(F)cc1)c1ccccc1 |  | inactive: 0.326% |
| CCC(=O)Nc1cccc(C2=NOC3(C2)C[C@@H](C(N)=O)N(C(=O)c2cc([N+](=O)[O-])cc([N+](=O)[O-])c2C)C3)c1 (stereo partly drawn) | inconclusive: 14.1 µM [quencher, side channel, partial curve] |  |
| CCCC(=O)c1ccc(N2CCN(C(=O)c3ccccc3Br)CC2)c(F)c1 | inconclusive: 0.794 µM [quencher, single point] |  |
| OC(CCCN1CCCCC1)(c1ccccc1)c1ccccc1 |  | inactive: -18.6% |
| CCn1c2ccccc2c2nn(C)c(=N)nc21 | inconclusive: 22.4 µM [quencher, side channel, partial curve] |  |
| CCCn1c(=N)c(C#N)cc2c(=O)n3ccccc3nc21 | inconclusive: 0.794 µM [quencher, side channel, full curve] |  |
| Cc1cccc(/C(N)=N/OC(=O)c2ccc(F)cc2)c1 |  | inactive: -10.1% |

| Structure (SMILES) | Potency | activity change, negative = inhibition |
| --- | --- | --- |
| S=c1[nH]nc(-c2cccnc2)n1/N=C/C=C/c1ccccc1 | inconclusive: 1.58 µM [quencher, side channel, full curve, poor fit] |  |
| Cc1nc2ccccc2n1CC(O)COc1ccc(Br)cc1 (stereo not drawn) |  | inactive: 4.18% |
| COc1cc([N+](=O)[O-])c(C(=O)N2CCOCC2)c([N+](=O)[O-])c1 | inconclusive: 10 µM [quencher, side channel, partial curve] |  |
| CCOc1ccc(-c2c(C(=O)N/N=C/c3ccc(C)s3)nnn2-c2nonc2N)cc1 | inconclusive: 25.1 µM [quencher, side channel, partial curve] |  |
| CN(C)CCNC(=S)Nc1cccc(Cl)c1 |  | inactive: -23.4% |
| Cc1cc(O)ccc1N=Cc1c(C(F)(F)F)[nH][nH]c1=O | inconclusive: 11.2 µM [quencher, side channel, partial curve] |  |
| CC1(CC(=O)N/N=C/c2cc(Br)c(O)cc2O)OCCO1 |  | inactive: 1.86% |
| O=S(=O)(NCCSc1ccccn1)c1ccc(Br)cc1 | inconclusive: 158 µM [inhibitor, partial curve, poor fit] |  |
| Cc1ccc(-c2ccc(=O)n(CC(=O)Nc3cccc(C(=O)N4CCN(C)CC4)c3)n2)cc1 | inconclusive: 14.1 µM [quencher, side channel, partial curve] |  |
| O=[N+]([O-])c1cccc(S(=O)(=O)Nc2nc3ccccc3nc2Nc2cccc(S(=O)(=O)N3CCCCC3)c2)c1 |  | inactive: -1.5% |
| O=C(CSc1nnc(CNC(=O)c2c(F)cccc2F)o1)Nc1ccc2c(c1)OCO2 |  | inactive: -1.59% |
| CCN(CC)c1ccc(C(=O)Nc2ccccc2)cc1[N+](=O)[O-] | inconclusive: 22.4 µM [quencher, single point] |  |
| CC1CCCCC1NC(=O)CCNS(=O)(=O)c1ccc(Cl)cc1 (stereo not drawn) |  | inactive: -1.53% |
| CCOc1ccc(CN(C)CCc2ccccn2)cc1 | inconclusive: 126 µM [inhibitor, partial curve] |  |
| COc1ccc(-n2c(NC(=O)c3ccco3)c(C#N)c3nc4ccccc4nc32)cc1 | inconclusive: 25.1 µM [quencher, side channel, partial curve] |  |
| CN(CC(=O)Nc1ccc(F)c(F)c1)S(=O)(=O)c1cccc2nsnc12 | inconclusive: 12.6 µM [quencher, side channel, partial curve] |  |
| O=S(=O)(c1cccc2nsnc12)N1CCN(c2ccccc2F)CC1 | inconclusive: 15.8 µM [quencher, side channel, partial curve] |  |
| CCCCN(CC)CCNC(=O)c1cc2cc3ccc(Cl)cc3nc2o1 | inconclusive: 3.55 µM [quencher, full curve] |  |
| COC(=O)C1=C(COc2ccc(C=O)cc2OC)NC(=O)NC1c1cc(C)ccc1C (stereo not drawn) |  | inconclusive: -17% [phenotype inactive] |
| O=C(Nc1nccs1)c1ccccn1 |  | inactive: -0.951% |
| COC1=C/C(=C/c2c(N)n3nc(CC(=O)N4CCCC4)sc3nc2=O)C=CC1=O | inconclusive: 25.1 µM [quencher, side channel, single point] |  |
